Test results published in patent US9050375B2, “Bi-specific digoxigenin binding antibodies” (priority 2009, dated 2015).

Assay: SPR (BiaCore) of sequence-optimized anti-Dig modules
Assay type: binding
Description: Further optimization of the humanized VH and VL sequences of the anti-digoxygenin antibody was applied to generate modules with even higher affinity towards digoxygenin. Based upon the experimentally determined as well as in-silico calculated predicted structures (see above, based upon structure modeling without experimental structure determination), we identified three positions in which alterations might affect affinity. These were located at (Kabat positions) Ser49, Ile57 and Ala60 of the VH domain (FIG. 46). Replacement of the amino acid VHSer49 with Ala, VHIle57 with Ala and of VHAla60 with Pro generated antibody derivatives with sequences that are listed as SEQ ID NO 36 and SEQ ID NO 37. […] The relevance of these positions was thereafter confirmed by inspecting the experimentally determined structure of the dig-binding variable region. The digoxygenin binding module with improved affinity can be applied as hapten-binding entity for various bi- and multispecific antibody derivatives.
For that, binding properties of the recombinant <Dig> derivatives were analyzed by surface plasmon resonance (SPR) technology using a Biacore T100 or Biacore 3000 instrument (GE Healthcare Bio-Sciences AB, Uppsala). This system is well established for the study of molecule interactions. […]

B1: <DIG> optimized at VH 49, 57, 60 (Kabat): humanized anti-Dig module with VH S49A, I57A, A60P; SEQ ID NO 36 and 37 (antibody)
heavy: QVQLVESGGGLVKPGGSLRLSGAASGFTFSDYAMSWIRQAPGKGLEWVASINIGATYAYYPDSVKGRFTISRDNAKNSLYLQMNSLRAEDTAVYYCARPGSPYEYDKAYYSMAYWGQGTTVTVSS[human IgG1 constant region not shown]
light: DIQMTQSPSSLSASVGDRVTITCRASQDIKNYLNWYQQKPGKAPKLLIYYSSTLLSGVPSRFSGSGSGTDFTLTISSLQPEDFATYYCQQSITLPPTFGGGTKVEIKRTVAAPSVFIFPPSDEQLKSGTASVVCLLNNFYPREAKVQWKVDNALQSGNSQESVTEQDSKDSTYSLSSTLTLSKADYEKHKVYACEVTHQGLSSPVTKSFNRGEC
Which results are given for B1?
Kd (BiaCore, FIG. 46 c, d, read-out: KD of anti-Dig module): 1 nM; improvement of affinity towards digoxygenin compared to the humanized parent molecule (VH49, VH57 and VH60 mutations): approximately 10 fold
